# Test results as given in publication PMC2566937 (Journal of medicinal chemistry, 2008).
# Experiments:
# α2β3γ2 GABAA receptor [1] = molecular target: T1, α2β3γ2 GABAA receptor (Rattus norvegicus, UniProt P23576+P63079)
# α6β3γ2 GABAA receptor = α6β3γ2 GABAA receptor (Rattus norvegicus, UniProt P30191+P63079); details: for Current induced by compound alone, % of maximal GABA-induced current: 1 mM compound
# α2β3γ2 GABAA receptor [2] = molecular target: T1, α2β3γ2 GABAA receptor; format: cell-based; details: HEK293, read-out: Inhibition of GABA-induced current
structure (smiles),measurement,setting,value
"Cl.NCc1nnc(O)o1 [5d, 5-Aminomethyl-3H-[1,3,4]oxadiazol-2-one Hydrochloride]",Hill coefficient (direct activation),α2β3γ2 GABAA receptor [1]; value of an extrapolated dose-response curve,1.23 ^*
same,Hill coefficient (direct activation),α6β3γ2 GABAA receptor,1.41 ± 0.14
"Cc1nnc(C2CCNCC2)o1.Cl [compound 19, 4-(5-Methyl-[1,3,4]oxadiazol-2-yl)-piperidine Hydrochloride]","Current induced by compound alone, % of maximal GABA-induced current",α2β3γ2 GABAA receptor [1]; 1 mM compound,less than 10%
"Cl.Oc1nnc(C2CCNCC2)o1 [5a, 5-Piperidin-4-yl-3H-[1,3,4]oxadiazol-2-one Hydrochloride]","Current induced by compound alone, % of maximal GABA-induced current",α6β3γ2 GABAA receptor,less than 10%
"Cl.Sc1nnc(C2CCNCC2)o1 [6a, 5-Piperidin-4-yl-3H-[1,3,4]oxadiazol-2-thione Hydrochloride]",inhibition at 1000 µM,α2β3γ2 GABAA receptor [2],24 ± 9%
same,"Current induced by compound alone, % of maximal GABA-induced current",α6β3γ2 GABAA receptor,less than 10%

# Marks after values point to notes of the source that are not given here.
